From PubChem BioAssay AID488969 (Vanderbilt High Throughput Screening Facility, 2010)
In all, about 110,000 compounds were measured (“z-score”: median about -0.1, highest 2% from about 2 on). Some of the results follow. Activity calls are given as the source filed them.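 The calls were made as follows: active = z-score in the third read window above 3 or below -3; inactive = the rest.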

target: Metabotropic glutamate receptor 8 (Rattus norvegicus) (UniProt P70579); experiment: rat mGluR8 modulators via GIRK flux, primary screen, cell-based, thallium flux, HTS (AID 488969); details: HEK293 rat mGluR8, GIRK (G protein-gated inwardly rectifying potassium channel) thallium flux, FluoZin2; at 10 µM; stronger effect = higher value; submaximal glutamate (EC20) added with thallium
Chain of UniProt P70579 (P70579 whole entry, looked up): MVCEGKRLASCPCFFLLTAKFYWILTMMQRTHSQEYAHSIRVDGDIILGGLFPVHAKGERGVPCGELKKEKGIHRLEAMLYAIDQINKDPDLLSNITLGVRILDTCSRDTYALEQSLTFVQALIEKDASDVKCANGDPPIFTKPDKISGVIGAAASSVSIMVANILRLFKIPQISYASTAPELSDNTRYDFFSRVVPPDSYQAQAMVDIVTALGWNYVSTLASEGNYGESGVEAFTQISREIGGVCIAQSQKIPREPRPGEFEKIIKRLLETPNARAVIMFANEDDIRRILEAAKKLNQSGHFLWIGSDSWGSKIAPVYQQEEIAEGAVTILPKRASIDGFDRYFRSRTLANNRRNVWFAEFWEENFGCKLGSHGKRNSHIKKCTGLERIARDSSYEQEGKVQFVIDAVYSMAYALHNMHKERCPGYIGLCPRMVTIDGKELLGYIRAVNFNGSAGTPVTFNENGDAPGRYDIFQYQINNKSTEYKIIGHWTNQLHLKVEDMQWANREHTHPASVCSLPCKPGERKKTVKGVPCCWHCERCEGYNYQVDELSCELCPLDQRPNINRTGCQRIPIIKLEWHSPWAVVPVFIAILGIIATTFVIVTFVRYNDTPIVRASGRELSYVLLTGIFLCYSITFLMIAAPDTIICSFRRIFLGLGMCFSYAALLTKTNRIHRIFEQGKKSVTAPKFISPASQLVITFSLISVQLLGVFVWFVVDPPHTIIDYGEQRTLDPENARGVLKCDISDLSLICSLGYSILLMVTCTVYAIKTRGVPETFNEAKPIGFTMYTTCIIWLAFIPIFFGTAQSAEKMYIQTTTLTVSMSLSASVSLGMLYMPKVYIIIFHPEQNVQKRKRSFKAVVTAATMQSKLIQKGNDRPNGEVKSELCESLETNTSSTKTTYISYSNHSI

Compound | z-score
COc1ccccc1N1C(=O)CCC1(C#N)c1ccc(Br)cc1 (stereo unspecified) | -0.14
Cc1nn(-c2nnc(NCc3ccccc3)nn2)c(C)c1Br | -0.428
COc1ccccc1/C=N/NC(=O)C(NC(=O)c1ccccc1)=C(C)C | -0.268
O=C(c1ccc(Cl)cc1)c1ccccc1C(=O)N1CCOCC1 | 0.919
CCOC(=O)CSc1nnc(SCCN2C(=O)c3ccccc3C2=O)s1 | -0.804
C/C(=N\NC(=O)CN1CCN(Cc2ccc(C)cc2)CC1)c1ccncc1 | 0.0602
COc1ccc(NC2CC(=O)N(c3ccccc3)C2=O)cc1 (stereo unspecified) | 0.00849
CCCC(=O)N=c1sc2cccc(F)c2n1C | -0.349
CCCn1c(=NC(=O)c2c(-c3c(F)cccc3Cl)noc2C)c(C(=O)OCC)cc2c(=O)n3ccccc3nc21 | -0.723
CC1(C)Cc2c(sc3ncnc(NNC(=S)NCc4ccccc4)c23)CO1 | -0.123
CCOC(=O)c1sc(NC(=O)CCN2C(=O)c3cccc([N+](=O)[O-])c3C2=O)c(C(=O)OCC)c1C | -0.136
Cc1ccc(C)c(NC(=O)CSc2nc(C)cc(C)c2C#N)c1 | 0.592
COc1cccc(-n2c(SCC(=O)NC3CCCC3)nnc2-c2ccco2)c1 | -0.193
O=C1CC(c2ccco2)CC(O)=C1C=NCCN1CCN(C2CC(=O)N(c3ccccc3)C2=O)CC1 (stereo unspecified) | -0.0278
NC(=NCCc1c[nH]c2ccccc12)NS(=O)(=O)c1ccc2ccccc2c1 | -0.0967
C1=C(CCNc2ncnc3c2[nH]c2ccccc23)CCCC1 | -1.12
N/C(=N/O)c1nc(N2CCCC2)nc(N(c2ccccc2)c2ccccc2)n1 | -0.626
Cc1ccccc1-n1c(=O)c2c(n3cnnc13)-c1ccccc1CC21CCCCC1 | -0.582
CCOC(=O)c1sc(NC(=S)NC(=O)C2CC2)cc1C | -0.201
Cn1c(=O)c2c(nc(N3CCN(Cc4ccccc4)CC3)n2CC(=O)c2ccccc2)n(C)c1=O | -0.583
Nc1nnc(CC(=O)N/N=C/c2cccc(OCCOc3ccccc3)c2)s1 | -0.152
C=CCn1c(SCc2nc3scc(-c4ccccc4)c3c(=O)[nH]2)nnc1-c1ccccc1F | -0.943

Compound | z-score
CN(c1ccccc1)S(=O)(=O)c1ccc(Cl)c(C(=O)NCCc2c[nH]c3ccccc23)c1 | -0.252
Cn1c(N2CCOCC2)nc2c1c(=O)n(Cc1ccc(Cl)cc1)c(=O)n2C | -0.42
Cc1cc(C)nc(NC(=O)c2ccc([N+](=O)[O-])o2)n1 | -0.191
CCN(C(=O)COC(=O)c1[nH]c(C)c(C(C)=O)c1C)C1CCS(=O)(=O)C1 (stereo unspecified) | -0.237
CC(C)C[C@@H](N)c1nnc(SCC(=O)c2ccc(Cl)cc2)o1 | -0.138
Cc1cc(C)n(CC(O)Cn2ccc3ccccc32)n1 (stereo unspecified) | -0.208
Cn1c(=O)c2[nH]c(Nc3ccccc3)nc2n(C)c1=O | 0.903
COc1cc(C2C(C(=O)Nc3ccc(F)cc3)=C(C)Nc3nc(CCCO)nn32)cc(OC)c1OC (stereo unspecified) | 0.418
N#CCCn1c(SCC(=O)Nc2ccc(N3CCOCC3)cc2)nc2ccccc21 | 2.51
O=C(Nc1nnc(CC(c2ccccc2)c2ccccc2)s1)c1ccco1 | 0.156
CN(CC(=O)Nc1ccc(C#N)cc1)CC(=O)Nc1ccc(N2CCOCC2)cc1 | -0.196
O=C(CNC(=O)c1ccccc1F)N/N=C/c1cc(Br)ccc1OC(=O)/C=C/c1ccco1 | -0.338
O=[N+]([O-])c1ccc(NCCCN2CCOCC2)c(Cl)c1 | -0.203
CCCSC1=C(C#N)C(c2ccc(Cl)cc2Cl)CC(=O)N1 (stereo unspecified) | -0.529
CCOCCCN(CCC#N)S(=O)(=O)c1ccc(S(=O)(=O)N2CCCC2)cc1 | -0.219
O=C(O)CC12C[C@H]3C[C@@H](C1)CC(n1ncc(N4CCN(c5ccccc5)CC4)c(Cl)c1=O)(C3)C2 | -0.11
COc1ccc(OC)c(/C=C/C(=O)OCC(=O)Nc2cccc(C(C)=O)c2)c1 | 0.00375
C=CCn1c(SCC(=O)NC2CCS(=O)(=O)C2)nc2sc(CC)cc2c1=O (stereo unspecified) | 0.636
Cc1cc(-n2nc(C)cc2C)n2nc(C)c(-c3ccc(Cl)cc3)c2n1 | -0.849
Cc1ccc(-c2nc3ccccc3[nH]2)cc1NC(=O)c1sc2cc(Cl)ccc2c1Cl | 0.107
Cn1c(=O)c(C(=O)Nc2cccnc2)c(O)c2ccccc21 | 1.29
Cn1c(C(=O)NCCc2ccsc2)cc2c(=O)n(C)c3ccccc3c21 | -0.331

Compound | z-score
CCOc1ncnc2c1oc1nc(CC(C)C)c3c(c12)CC(C)(C)OC3 | -0.509
O=C1C2C3C=CC(C3=C(c3ccccc3)c3ccccc3)C2C(=O)N1Cc1ccccc1 (stereo unspecified) | -0.124
N#CCSc1nc2ccccc2c(=O)n1-c1ccccc1 | -0.383
CCOC(=O)N1CCN(C(=S)NC)CC1 | -0.477
CCc1nc(SCc2ccccn2)c2c(=O)n(C)c(=O)n(C)c2n1 | -1.4
COc1ccc(-c2cc(-c3n[nH]c(=S)n3-c3cc(OC)ccc3OC)[nH]n2)cc1 | -0.241
CC(C)C(c1nnnn1C1CCCC1)N1CCN(C(=O)c2ccco2)CC1 (stereo unspecified) | 0.217
O=C(Nc1nnc(SCc2ccc(Cl)cc2Cl)s1)C1COc2ccccc2O1 (stereo unspecified) | 0.208
Clc1ccc(CN2C3=NCCCN3c3ccccc32)cc1 | 0.436
COc1cc(NS(=O)(=O)c2ccc(NC(=S)NC(=O)c3sc4ccccc4c3Cl)cc2)ncn1 | -0.55
COc1ccc(/C=C(\C#N)C(=O)NC2CCS(=O)(=O)C2)cc1OC (stereo unspecified) | 0.153
Cc1ccc(NC(=O)COc2ccc(Br)cc2C)cc1 | -0.0663
CCC(=O)Nc1cc2c(cc1C(C)=O)OCCO2 | 0.158
CCCNC(=O)C(C)n1c2ccccc2c2nc(=O)cc(C)n21 (stereo unspecified) | -0.316
Cn1c(COc2ccccc2)nnc1SCCC(=O)Nc1ccccc1 | -0.47
COc1ccc(NCC(=O)N/N=C/C=C\c2ccccc2)cc1 | -0.18
COc1ccc(NC(=O)C(NC(C)=O)C(=O)NCc2ccccc2)cc1 (stereo unspecified) | 0.0301
c1ccc(Cc2nnc3sc(-c4ccncc4)nn23)cc1 | -0.409
CCC(Sc1nc(C)cc(C)n1)C(=O)NC1=NN=C(c2ccc(C)cc2)CS1 (stereo unspecified) | -0.216
CCCc1cc(=O)n2c([nH]c3ccccc32)c1C#N | -0.145
O/N=C(\c1ccc2c(c1)OCCO2)C1CCCCC1 | 0.198
Cc1ccc(-c2nc(CS(=O)(=O)CC(=O)NC3CCCCC3C)c(C)o2)cc1 (stereo unspecified) | -0.262

Compound | z-score
O=C(c1ccc(N2C(=O)C3CC=C(Cl)CC3C2=O)cc1)N1CCCCC1 (stereo unspecified) | -0.166
COc1ccc(OC)c(NC(=O)C2C3CCC(C3=C(C)C)C2C(=O)O)c1 (stereo unspecified) | 1.18
Cc1ccc(-n2nc(C)c(C3(O)C(=O)N(C(C)C)c4ccccc43)c2N)cc1 (stereo unspecified) | -0.214
O=C(CSc1nc2ccccc2[nH]1)Nc1nc(-c2ccccc2)c(-c2ccccc2)o1 | -0.201
COC(=O)c1ccccc1NC(=O)C1CCCN(S(=O)(=O)c2ccc(F)cc2)C1 (stereo unspecified) | -2.29
CC(=O)CCc1ccc2oc(C(=O)O)c(C)c2c1 | -0.497
CC(=O)NC1CC(C)(C)N(OC(C)=O)C(C)(C)C1 | 0.144
CCOC(=O)COc1cc(OCC(=O)OCC)c2c(=O)cc(-c3ccccc3)oc2c1 | -0.568
CCOC(=O)c1[nH]c2ccc(OC)cc2c1NC(=O)c1ccc2c(c1)OCO2 | 0.83
CCOC(=O)N1CCC(NS(=O)(=O)c2ccc3c(c2)C(C)(C)C(=O)N3C)CC1 | 0.427
CCOC(=O)C(C)Oc1ccc2c(-c3cccc([N+](=O)[O-])c3)cc(=O)oc2c1 (stereo unspecified) | -0.491
CCC(=O)Oc1ccc(C2N(C(=O)CC)CCN2S(=O)(=O)c2ccc(C)cc2)cc1OC (stereo unspecified) | -0.0522
CCCCCCn1c(CN2CCC(C)CC2)nc2c1c(=O)n(C)c(=O)n2C | -0.775
Cc1noc(C)c1S(=O)(=O)N1CCC(C(=O)N2CCN(c3ccccc3Cl)CC2)CC1 | -0.577
CN(C)c1ccc(NC(=O)c2ccc3nsnc3c2)cc1 | -0.152
O=C(CN1C(=O)C2C3C=CC(C4CC34)C2C1=O)OCC(=O)c1ccccc1 (stereo unspecified) | -0.112
CCOC(=O)CNC(=O)Cn1cnc2c(nnn2-c2cccc(Cl)c2)c1=O | -0.134
COc1ccccc1NC(=O)N1CCN(c2ncccn2)CC1 | 0.74
CCc1cccc(CC)c1NC(=O)CO/N=C(\C)c1cccs1 | -1.14
O=C(COC(=O)C1CC(=O)N(Cc2ccccc2)C1)Nc1ccc2c(c1)OCO2 (stereo unspecified) | active: -4.56
CCCC(c1nnnn1CCOC)N1CCN(C(=O)c2ccco2)CC1 (stereo unspecified) | -0.0556
O=C(CCNc1ccc(Cl)c(C(F)(F)F)c1)c1ccco1 | -0.274

Compound | z-score
Cc1ccc(C)c(C2=CSC3=NS(=O)(=O)CCN23)c1 | -0.128
Cc1ccccc1N(Cc1nnc2n1CCCCC2)C(=O)Nc1ccccc1 | -0.143
CCSc1nc(=O)n(-c2ccccc2)c(C)c1C(C)=S | -0.13
COc1ccc2c(c1OC)C(=O)OC2Nc1nc(-c2cc3ccccc3oc2=O)cs1 (stereo unspecified) | 0.633
CCn1c(SC)nnc1-c1nnc(SC)n1CC | 0.0941
COc1ccc(N2C(=O)CC(N3CCN(c4ccc(S(=O)(=O)N5CCCC5)cc4)CC3)C2=O)cc1 (stereo unspecified) | 1.43
N#Cc1cc2c(nc1SCc1ccccc1)CCCCC2 | -0.0789
O=C(CNC(=O)c1cccs1)NCCN1CCC(Cc2ccccc2)CC1 | -0.612
O=S(=O)(c1cccs1)N1CCC(Cc2ccccc2)CC1 | -0.0595
COc1ccc(S(=O)(=O)Nc2ccc3c(c2)OCO3)cc1C(=O)O | 1.61
COc1ccc(/C=C2/C(=O)N=C3SCCN32)cc1 | -0.16
CCN1CCN(C(=O)c2cc3sccc3n2CC(=O)c2ccccc2)CC1 | -0.119
COCCN(CCOC)C(=O)CCn1c(=O)oc2ccccc21 | 0.976
COc1cc(NC(=O)CCCc2c[nH]c3ccccc23)cc(OC)c1 | -0.283
Cc1ccc(CNC(=O)CCS(=O)(=O)c2ccc(Cl)cc2)cc1 | -0.472
COC(=O)Nc1sccc1C(=O)Nc1sccc1C(=O)OC | -0.429
COc1ccccc1OCC(=O)NNC(=O)c1ccoc1C | -0.097
S=C(NCCc1ccccc1)N1CCN(Cc2ccccc2)CC1 | -0.499
